The supplement of paper PMC4967469
Lines with a small IC50 respond at low doses; a limit (>, <) means that the fit lies beyond the doses tested. AUC, from the same fit, is the share of area under the viability curve across the 256-fold dose range; the more sensitive the line, the further below 1. Where the top dose is marked as inferred, it comes from the curve model; the source does not state it. For some of these results: An entry number marks a drug with two screens in the source, which often give different values.

compound: Cc1ccc(-n2nc(C(C)(C)C)cc2NC(=O)Nc2ccc(OCCN3CCOCC3)c3ccccc23)cc1 [BIRB 0796]; assay: Viability of human cancer cell lines after 72 h of drug (GDSC screen); conditions: top dose 10 µM; top dose inferred
Method: (§1)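 Human cancer cell lines in 384-well plates, medium with 10% serum, drug for 72 h over a 256-fold dose range (nine 2-fold or five 4-fold steps up to the top dose). Adherent lines were fixed and stained with the nucleic acid dye Syto60, suspension lines read with resazurin; signal relative to control wells, capped at 0 and 100%. One two-parameter sigmoid per drug and line, fitted in a mixed model over all curves with the slope shared within a line.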

Cell Line | AUC | IC50
451Lu (melanoma, adherent) | 0.98 | > 10 µM
ASH-3 (thyroid, adherent) | 0.973 | > 10 µM
CHSA0011 (chondrosarcoma, adherent) | 0.816 | 8.66 µM
COLO-783 (melanoma, adherent) | 0.983 | > 10 µM
EFM-192A (breast, adherent) | 0.986 | > 10 µM
H3118 (head and neck, adherent) | 0.964 | > 10 µM
HARA (lung squamous cell carcinoma, adherent) | 0.969 | > 10 µM
HCC-15 (lung squamous cell carcinoma, adherent) | 0.981 | > 10 µM
Hs766T (pancreas, adherent) | 0.979 | > 10 µM
Hs-578-T (breast, adherent) | 0.985 | > 10 µM
JHU-022 (head and neck, adherent) | 0.927 | > 10 µM
JIMT-1 (breast, adherent) | 0.956 | > 10 µM
LC-1-sq (lung squamous cell carcinoma, adherent) | 0.948 | > 10 µM
MDA-MB-330 (breast, adherent) | 0.967 | > 10 µM
MDA-MB-415 (breast, adherent) | 0.959 | > 10 µM
MDA-MB-468 (breast, adherent) | 0.893 | > 10 µM
MOG-G-UVW (glioma, adherent) | 0.972 | > 10 µM
NCI-H841 (small cell lung carcinoma, adherent) | 0.928 | > 10 µM

Cell Line | AUC | IC50
NCI-H1688 (small cell lung carcinoma, adherent) | 0.917 | > 10 µM
NCI-H1944 (lung adenocarcinoma, adherent) | 0.959 | > 10 µM
NCI-H2110 (non-small cell lung carcinoma, adherent) | 0.986 | > 10 µM
OE21 (oesophagus, adherent) | 0.936 | > 10 µM
OV-90 (ovary, adherent) | 0.93 | > 10 µM
OVISE (ovary, adherent) | 0.953 | > 10 µM
OVTOKO (ovary, adherent) | 0.921 | > 10 µM
PANC-02-03 (pancreas, adherent) | 0.904 | > 10 µM
PCI-4B (head and neck, adherent) | 0.987 | > 10 µM
PCI-6A (head and neck, adherent) | 0.967 | > 10 µM
PEO1 (ovary, adherent) | 0.917 | > 10 µM
RCC-AB (kidney, adherent) | 0.9 | > 10 µM
RCC-FG2 (kidney, adherent) | 0.902 | > 10 µM
RCC-JF (kidney, adherent) | 0.877 | > 10 µM
RCC-JW (kidney, adherent) | 0.975 | > 10 µM
SK-GT-4 (oesophagus, adherent) | 0.889 | > 10 µM
TE-4 (oesophagus, adherent) | 0.95 | > 10 µM

compound: O=C(c1cc(Cc2n[nH]c(=O)c3ccccc23)ccc1F)N1CCN(C(=O)C2CC2)CC1 [Olaparib]; assay: as above; conditions: top dose 5 µM; screen: GDSC drug entry 1017; top dose inferred
Method: as §1

Cell Line | AUC | IC50
451Lu (melanoma, adherent) | 0.986 | > 5 µM
ASH-3 (thyroid, adherent) | 0.978 | > 5 µM
CHSA0011 (chondrosarcoma, adherent) | 0.98 | > 5 µM
COLO-783 (melanoma, adherent) | 0.973 | > 5 µM
EFM-192A (breast, adherent) | 0.984 | > 5 µM
H3118 (head and neck, adherent) | 0.962 | > 5 µM
HARA (lung squamous cell carcinoma, adherent) | 0.937 | > 5 µM
HCC-15 (lung squamous cell carcinoma, adherent) | 0.929 | > 5 µM
Hs766T (pancreas, adherent) | 0.939 | > 5 µM
Hs-578-T (breast, adherent) | 0.977 | > 5 µM
JHU-022 (head and neck, adherent) | 0.945 | > 5 µM
JIMT-1 (breast, adherent) | 0.95 | > 5 µM
LC-1-sq (lung squamous cell carcinoma, adherent) | 0.939 | > 5 µM
MDA-MB-330 (breast, adherent) | 0.986 | > 5 µM
MDA-MB-415 (breast, adherent) | 0.983 | > 5 µM
MOG-G-UVW (glioma, adherent) | 0.873 | 4.57 µM
NCI-H841 (small cell lung carcinoma, adherent) | 0.981 | > 5 µM

Cell Line | AUC | IC50
NCI-H1688 (small cell lung carcinoma, adherent) | 0.987 | > 5 µM
NCI-H2110 (non-small cell lung carcinoma, adherent) | 0.963 | > 5 µM
OE21 (oesophagus, adherent) | 0.957 | > 5 µM
OV-90 (ovary, adherent) | 0.975 | > 5 µM
OVISE (ovary, adherent) | 0.925 | > 5 µM
OVTOKO (ovary, adherent) | 0.944 | > 5 µM
PANC-02-03 (pancreas, adherent) | 0.978 | > 5 µM
PCI-4B (head and neck, adherent) | 0.924 | > 5 µM
PCI-6A (head and neck, adherent) | 0.914 | > 5 µM
PEO1 (ovary, adherent) | 0.985 | > 5 µM
RCC-AB (kidney, adherent) | 0.978 | > 5 µM
RCC-FG2 (kidney, adherent) | 0.965 | > 5 µM
RCC-JF (kidney, adherent) | 0.884 | > 5 µM
RCC-JW (kidney, adherent) | 0.966 | > 5 µM
SK-GT-4 (oesophagus, adherent) | 0.959 | > 5 µM
TE-4 (oesophagus, adherent) | 0.987 | > 5 µM

same assay, conditions: top dose 10 µM; screen: GDSC drug entry 1495

Cell Line | AUC | IC50
451Lu (melanoma, adherent) | 0.988 | > 10 µM
ASH-3 (thyroid, adherent) | 0.963 | > 10 µM
CHSA0011 (chondrosarcoma, adherent) | 0.91 | > 10 µM
COLO-783 (melanoma, adherent) | 0.99 | > 10 µM
EFM-192A (breast, adherent) | 0.977 | > 10 µM
H3118 (head and neck, adherent) | 0.953 | > 10 µM
HARA (lung squamous cell carcinoma, adherent) | 0.925 | > 10 µM
HCC-15 (lung squamous cell carcinoma, adherent) | 0.968 | > 10 µM
Hs766T (pancreas, adherent) | 0.976 | > 10 µM
Hs-578-T (breast, adherent) | 0.968 | > 10 µM
JHU-022 (head and neck, adherent) | 0.967 | > 10 µM
JIMT-1 (breast, adherent) | 0.931 | > 10 µM
LC-1-sq (lung squamous cell carcinoma, adherent) | 0.973 | > 10 µM
MDA-MB-330 (breast, adherent) | 0.984 | > 10 µM
MDA-MB-415 (breast, adherent) | 0.962 | > 10 µM
MOG-G-UVW (glioma, adherent) | 0.819 | 5.51 µM
NCI-H841 (small cell lung carcinoma, adherent) | 0.972 | > 10 µM

Cell Line | AUC | IC50
NCI-H1688 (small cell lung carcinoma, adherent) | 0.974 | > 10 µM
NCI-H2110 (non-small cell lung carcinoma, adherent) | 0.963 | > 10 µM
OE21 (oesophagus, adherent) | 0.937 | > 10 µM
OV-90 (ovary, adherent) | 0.973 | > 10 µM
OVISE (ovary, adherent) | 0.933 | > 10 µM
OVTOKO (ovary, adherent) | 0.957 | > 10 µM
PANC-02-03 (pancreas, adherent) | 0.964 | > 10 µM
PCI-4B (head and neck, adherent) | 0.893 | > 10 µM
PCI-6A (head and neck, adherent) | 0.955 | > 10 µM
PEO1 (ovary, adherent) | 0.924 | > 10 µM
RCC-AB (kidney, adherent) | 0.918 | > 10 µM
RCC-FG2 (kidney, adherent) | 0.965 | > 10 µM
RCC-JF (kidney, adherent) | 0.875 | > 10 µM
RCC-JW (kidney, adherent) | 0.932 | > 10 µM
SK-GT-4 (oesophagus, adherent) | 0.972 | > 10 µM
TE-4 (oesophagus, adherent) | 0.964 | > 10 µM

compound: CC(C)=CC[C@@H](O)C1=CC(=O)c2c(O)ccc(O)c2C1=O [Shikonin]; assay: as above; conditions: top dose 16 µM; top dose inferred
Method: as §1

Cell Line | AUC | IC50
451Lu (melanoma, adherent) | 0.35 | 0.391 µM
ASH-3 (thyroid, adherent) | 0.478 | 0.87 µM
CHSA0011 (chondrosarcoma, adherent) | 0.736 | 6.34 µM
COLO-783 (melanoma, adherent) | 0.829 | 9.45 µM
EFM-192A (breast, adherent) | 0.484 | 0.9 µM
H3118 (head and neck, adherent) | 0.426 | 0.614 µM
HARA (lung squamous cell carcinoma, adherent) | 0.627 | 2.37 µM
HCC-15 (lung squamous cell carcinoma, adherent) | 0.571 | 1.65 µM
Hs766T (pancreas, adherent) | 0.622 | 2.42 µM
Hs-578-T (breast, adherent) | 0.666 | 3 µM
JHU-022 (head and neck, adherent) | 0.652 | 2.97 µM
JIMT-1 (breast, adherent) | 0.405 | 0.536 µM
LC-1-sq (lung squamous cell carcinoma, adherent) | 0.556 | 1.47 µM
MDA-MB-330 (breast, adherent) | 0.512 | 1.09 µM
MDA-MB-415 (breast, adherent) | 0.545 | 1.38 µM
MDA-MB-468 (breast, adherent) | 0.497 | 0.985 µM
MOG-G-UVW (glioma, adherent) | 0.465 | 0.807 µM
NCI-H841 (small cell lung carcinoma, adherent) | 0.579 | 1.65 µM
NCI-H1688 (small cell lung carcinoma, adherent) | 0.759 | 6.12 µM
NCI-H1944 (lung adenocarcinoma, adherent) | 0.494 | 0.96 µM
NCI-H2110 (non-small cell lung carcinoma, adherent) | 0.516 | 1.11 µM
OE21 (oesophagus, adherent) | 0.565 | 1.61 µM
OV-90 (ovary, adherent) | 0.486 | 0.909 µM
OVISE (ovary, adherent) | 0.563 | 1.57 µM
OVTOKO (ovary, adherent) | 0.506 | 1.04 µM
PANC-02-03 (pancreas, adherent) | 0.456 | 0.739 µM
PCI-4B (head and neck, adherent) | 0.28 | 0.247 µM
PCI-6A (head and neck, adherent) | 0.461 | 0.782 µM

compound: Cc1cc(N2CCOCC2)cc2[nH]c(-c3c(NC[C@@H](O)c4cccc(Cl)c4)cc[nH]c3=O)nc12 [BMS-536924]; assay: as above; conditions: top dose 4 µM; screen: GDSC drug entry 1091; top dose inferred
Method: as §1

Cell Line | AUC | IC50
451Lu (melanoma, adherent) | 0.983 | > 4 µM
ASH-3 (thyroid, adherent) | 0.949 | > 4 µM
CHSA0011 (chondrosarcoma, adherent) | 0.833 | > 4 µM
COLO-783 (melanoma, adherent) | 0.967 | > 4 µM
EFM-192A (breast, adherent) | 0.984 | > 4 µM
